# In all, about 39,000 compounds went through this assay and about 220 (0.56%) showed activity. Some of the results follow.
# Tested on: Escherichia coli K-12 BW25113
# Experiment: relative growth (OD600 normalised to plate interquartile mean) (fraction); higher = less growth inhibition, active = 0.2 or less
# Settings: 50 µM; LB; incubation time: overnight (16-24 h)
# 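Also: static incubation at 37 °C against the wild-type strain, values averaged over two biological replicates.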
row,Structure (SMILES),relative growth
1,CCn1c2c(ccc1=O)C[C@H](N)CC2,inactive: 1.03
2,C[C@H](CO)N1C[C@H](C)[C@@H](CN(C)C(=O)NC2CCCCC2)Oc2c(NS(=O)(=O)c3cn(C)cn3)cccc2C1=O,inactive: 0.991
3,C[C@@H]1CN([C@@H](C)CO)C(=O)c2cc(NC(=O)Nc3cccc4ccccc34)ccc2O[C@@H]1CN(C)C(=O)Nc1ccc2c(c1)OCO2,inactive: 1.03
4,Nc1nnc(N)c2ccccc12,inactive: 1.04
5,C[C@H]1CN([C@@H](C)CO)C(=O)c2c(c3ccccc3n2C)-c2ccccc2CO[C@@H]1CN(C)C(=O)Nc1ccccc1,inactive: 0.99
6,CC/C=C\C/C=C\C/C=C\CCCCCCCCCC(=O)O,inactive: 0.969
7,C[C@@H]1CN([C@H](C)CO)C(=O)c2cc(NC(=O)Nc3ccc4c(c3)OCO4)ccc2O[C@H]1CN(C)S(C)(=O)=O,inactive: 0.991
8,CC(C)NCC(O)COc1cccc2ccccc12.Cl (configuration not stated),inactive: 1.01
9,C[C@@H]1CN([C@H](C)CO)S(=O)(=O)c2ccc(C#CCN(C)C)cc2O[C@@H]1CN(C)Cc1ccncc1,inactive: 0.996
10,CN(C)CCCNC(=O)C[C@@H]1CC[C@@H](NS(=O)(=O)c2ccccc2)[C@@H](CO)O1,inactive: 0.996
11,O=C(CCc1ccc(O)cc1)c1c(O)cc(O)cc1OC1OC(CO)C(O)C(O)C1O (configuration not stated),inactive: 1.1
12,C[C@@H]1CCCCO[C@@H](CN(C)Cc2ccncc2)[C@@H](C)CN([C@H](C)CO)C(=O)c2cc(NC(=O)Nc3ccccc3)ccc2O1,inactive: 0.986
13,C[C@H](CO)N1C[C@H](C)[C@H](CN(C)S(=O)(=O)c2cn(C)cn2)Oc2ccc(NS(=O)(=O)c3cn(C)cn3)cc2C1=O,inactive: 1.02
14,Cc1ccc(S(=O)(=O)N(C)C[C@H]2Oc3c(NC(=O)Nc4cccc5ccccc45)cccc3C(=O)N([C@H](C)CO)C[C@@H]2C)cc1,inactive: 1.03
15,Cc1noc(C)c1NC(=O)N(C)C[C@H]1Oc2c(NC(=O)c3cnccn3)cccc2C(=O)N([C@@H](C)CO)C[C@H]1C,inactive: 0.987
16,C[C@@H]1CN([C@@H](C)CO)C(=O)c2cccc(NC(=O)c3cnccn3)c2O[C@H]1CN(C)C(=O)Nc1ccccc1,inactive: 0.99
17,Cc1ccc(S(=O)(=O)Nc2cccc3c2O[C@@H](CN(C)Cc2ccc(Oc4ccccc4)cc2)[C@@H](C)CN([C@@H](C)CO)C3=O)cc1,inactive: 1.01
18,CCCCCOc1ccc(-c2cc(-c3ccc(C(=O)N[C@H]4C[C@@H](O)[C@@H](O)NC(=O)[C@H]5[C@@H](O)[C@@H](C)CN5C(=O)[C@H]([C@@H](O)CC(N)=O)NC(=O)[C@H]([C@@H](O)[C@@H](O)c5ccc(O)c(OS(=O)(=O)O)c5)NC(=O)[C@H]5C[C@@H](O)CN5C(=O)[C@H]([C@@H](C)O)NC4=O)cc3)no2)cc1,inactive: 0.952
19,CCCCc1oc2ccc(NS(C)(=O)=O)cc2c1C(=O)c1ccc(OCCCN(CCCC)CCCC)cc1.Cl,inactive: 1.13
20,C[C@H](CO)N1C[C@H](C)[C@H](CN(C)Cc2ccc(C(F)(F)F)cc2)OCCCC[C@H](C)Oc2ccc(NC(=O)CCC(F)(F)F)cc2C1=O,inactive: 0.94
21,C[C@H](CO)N1C[C@H](C)[C@@H](CN(C)C(=O)Nc2ccc(C(F)(F)F)cc2)Oc2ccc(NC(=O)Nc3cccc4ccccc34)cc2CC1=O,inactive: 1.02

row,Structure (SMILES),relative growth
1,Clc1ccc(-c2cccs2)nn1,inactive: 0.961
2,C[C@@H]1CCCCO[C@H](CN(C)C(=O)c2ccncc2)[C@H](C)CN([C@H](C)CO)C(=O)c2cc(NS(=O)(=O)c3ccc(Cl)cc3)ccc2O1,inactive: 0.984
3,CC(=O)c1cncnc1,inactive: 0.991
4,Cc1noc(C)c1NC(=O)N(C)C[C@H]1Oc2ccc(NC(=O)C3CC3)cc2C(=O)N([C@@H](C)CO)C[C@@H]1C,inactive: 1.01
5,Cc1noc(C)c1NC(=O)N(C)C[C@@H]1Oc2c(NC(=O)c3cnccn3)cccc2C(=O)N([C@@H](C)CO)C[C@@H]1C,inactive: 1.03
6,O=C(O)[C@@H]1C2C=CC3(O2)C1C(=O)N1CCS(=O)[C@H]13 (some centres not stated),inactive: 0.985
7,C[C@H]1CN([C@@H](C)CO)C(=O)Cc2cc(NC(=O)C3CCCCC3)ccc2O[C@H]1CN(C)Cc1ccc(C(=O)Nc2ccccc2N)cc1,inactive: 1.03
8,C[C@@H]1CCCCO[C@@H](CN(C)Cc2ccccc2)[C@@H](C)CN([C@H](C)CO)C(=O)c2cc(NC(=O)NC3CCCCC3)ccc2O1,inactive: 1.02
9,COc1cccc(S(=O)(=O)N(C)C[C@H]2Oc3ncc(C#CCN(C)C)cc3C(=O)N([C@@H](C)CO)C[C@@H]2C)c1,inactive: 0.995
10,C[C@H](CO)N1C[C@H](C)[C@@H](CN(C)C(=O)Cc2ccccc2)Oc2cc(C#CC3(O)CCCC3)ccc2S1(=O)=O,inactive: 1.01
11,CCC(=O)N(C)C[C@H]1Oc2ncc(C#C[C@H](C)O)cc2C(=O)N([C@@H](C)CO)C[C@H]1C,inactive: 1.05
12,C[C@@H]1CCCCO[C@@H](CN(C)Cc2ccc(C(=O)O)cc2)[C@H](C)CN([C@@H](C)CO)C(=O)c2cc(NC(=O)Nc3ccc(F)cc3)ccc2O1,inactive: 0.991
13,COc1ccc(S(=O)(=O)Nc2ccc3c(c2)CC(=O)N([C@@H](C)CO)C[C@@H](C)[C@@H](CN(C)Cc2ccc(-c4ccccc4)cc2)O3)cc1,inactive: 1.02
14,Cc1ccc(S(=O)(=O)Nc2ccc3c(c2)C(=O)N([C@@H](C)CO)C[C@H](C)[C@H](CN(C)C(=O)Nc2c(C)noc2C)OCCCC[C@H](C)O3)cc1,inactive: 1.03
15,O=C(O)CNC(=O)C1CCC1,inactive: 1.01
16,C[C@@H](O)[C@@H](Nc1ncnc2ccccc12)C(=O)O,inactive: 0.988
17,C(=N\n1cnnc1)/c1ccco1,inactive: 0.988
18,Cc1noc(C)c1S(=O)(=O)Nc1cccc2c1O[C@H](CN(C)Cc1ccccc1)[C@H](C)CN([C@@H](C)CO)C2=O,inactive: 1
19,C[C@@H]1CN([C@@H](C)CO)C(=O)c2cc(NC(=O)Cn3cnnn3)ccc2O[C@H]1CN(C)CC1CCCCC1,inactive: 0.982
20,COc1ccc2c(c(Br)c(C(=O)O)n2CCCOc2cccc3ccccc23)c1-c1ccccc1C,inactive: 1
21,C[C@@H]1CCCCO[C@H](CN(C)C(=O)Nc2ccc3c(c2)OCO3)[C@H](C)CN([C@H](C)CO)C(=O)c2cc(NC(=O)c3ccccc3)ccc2O1,inactive: 1.02

row,Structure (SMILES),relative growth
1,CC(C)N1C[C@@H](CN(C)Cc2ccc(Cl)c(Cl)c2)Oc2c(NC(=O)c3ccncc3)cccc2C1=O,inactive: 1
2,C[C@@H]1CCCCO[C@@H](CN(C)Cc2ccc(C(F)(F)F)cc2)[C@H](C)CN([C@H](C)CO)C(=O)c2cc(NS(=O)(=O)c3ccc(Cl)cc3)ccc2O1,inactive: 1.01
3,O=C(O)C1CCNCC1,inactive: 0.901
4,NCC[C@@H]1CC[C@@H](NC(=O)C2CCCC2)[C@@H](CO)O1,inactive: 1
5,Cc1noc(C)c1NC(=O)N(C)C[C@@H]1Oc2ccc(NC(=O)Cn3cnnn3)cc2CC(=O)N([C@H](C)CO)C[C@@H]1C,inactive: 1
6,CC(C)NC(=O)Nc1ccc2c(c1)C(=O)N(C)[C@H]1CC[C@H](CC(=O)NCc3ccc(F)cc3)O[C@@H]1CO2,inactive: 0.954
7,C[C@H]1CN([C@@H](C)CO)C(=O)Cc2cc(NC(=O)Cc3cn(C)c4ccccc34)ccc2O[C@H]1CN(C)Cc1ccc(-c2ccccc2)cc1,inactive: 1.01
8,C[C@@H]1CN([C@@H](C)CO)C(=O)c2cccc(NC(=O)c3ccncc3)c2O[C@H]1CN(C)Cc1ccc(Oc2ccccc2)cc1,inactive: 1.01
9,C[C@H](CO)N1C[C@H](C)[C@H](CN(C)C(=O)Nc2cccc3ccccc23)OCCCC[C@H](C)Oc2ccc(NC(=O)Nc3ccc(F)cc3)cc2C1=O,inactive: 1.03
10,O=C(O)[C@H]1CCCC[C@@H]1C(=O)N1CCOCC1,inactive: 1.03
11,C[C@@H]1CN([C@H](C)CO)C(=O)c2cc(NS(=O)(=O)c3ccc(F)cc3)ccc2O[C@@H]1CN(C)C(=O)Nc1cccc2ccccc12,inactive: 1.03
12,C[C@@H]1CCCCO[C@@H](CN(C)C(=O)CCC(F)(F)F)[C@@H](C)CN([C@H](C)CO)C(=O)c2cc(NS(=O)(=O)c3ccc(F)cc3)ccc2O1,inactive: 0.979
13,C[C@@H]1CN([C@H](C)CO)C(=O)c2cc(NC(=O)Nc3ccc4c(c3)OCO4)ccc2O[C@@H](C)CCCCO[C@@H]1CN(C)Cc1ccncc1,inactive: 0.985
14,C[C@H]1CN([C@@H](C)CO)S(=O)(=O)c2ccc(C#CCC3CCCC3)cc2O[C@H]1CN(C)C(=O)c1cnccn1,inactive: 0.983
15,C[C@H](CO)N1C[C@H](C)[C@H](CN(C)C(=O)Nc2cccc(F)c2)OCc2ccccc2-c2c(n(C)c3ccccc23)C1=O,inactive: 1.01
16,C[C@H]1CN([C@@H](C)CO)C(=O)c2cc(NS(=O)(=O)c3ccc(F)cc3)ccc2O[C@@H]1CN(C)S(=O)(=O)c1ccc(F)cc1,inactive: 0.997
17,CN1CCN(C(=O)C[C@@H]2CC[C@H]3[C@H](COc4ccc(NC(=O)c5cscn5)cc4C(=O)N3C)O2)CC1,inactive: 0.98
18,C[C@H]1CN([C@@H](C)CO)C(=O)c2cccc(NS(=O)(=O)c3ccccc3)c2O[C@H]1CN(C)CC1CC1,inactive: 0.985
19,O=C(C[C@H]1CC[C@@H](NS(=O)(=O)c2ccc(F)cc2)[C@H](CO)O1)N1CCC(Cc2ccccc2)CC1,inactive: 0.994
20,Cc1cc(C(=O)Nc2cccc3c2O[C@H](CN(C)C(=O)Nc2ccccc2)[C@@H](C)CN([C@@H](C)CO)C3=O)n(C)n1,inactive: 0.983
